# Experimental data from the supplement of paper PMC8728848.
# This is one part of the list.
# B1: PX9961J-bvu-499-24-499 (Bacteroides vulgatus) (protein)
# chain: LNTDPSTAVPSDDAIKNIDDAQVALNGIYRLASAHSYYGDNYLYYADCRGEDVQARINKGAGRRVSPYYFFDVTADDNFNITLVWNQPYKVIHQANSLIEKLDAGNAGNARPEEVARIKSEALAMRGLALFDLTRLFGMPYTLDNGASLGVPIEIQTTLEDHAPERNTVAQCYEQVLKDLNDALGGLTKEKHDAYMNYWSVKALLSRVYLYMNDNENALKCAEEVINDNGGIYRLFTHDEYPSVWGKDFNSESLFEFYFTMSEPSGGSGGEGAPMVYADNVKDWNNLILTKAYLDLLNEDPEDVRHVFPHLPENAVADTLPVAAKGQPKYLIKYPGKSGSVTDAVSTVNPQDNDLCILRLSEVYLNAAEAAFKIGNTEKALTYLNAIVTRANPAKSVTSADLSLERILKERRKELVGEGHAFFDYMRNGKSVDRSGGWHLTMPEDARVIAPSDPRVALPIPQTEIDANPNIVQNPR
# What was measured:
# Assay in all cases: glycan array binding signal (z-score within array); higher = stronger binding
# Settings in all cases: glycan notation: IUPAC condensed, linker removed
# [1] = target: Gal(b1-3)GlcNAc(b1-2)Man(a1-3)[Gal(b1-3)GlcNAc(b1-2)Man(a1-6)]Man(b1-4)GlcNAc(b1-4)[Fuc(a1-6)]GlcNAc
# Outline: (§1)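 The binding signal is a Z-score computed within each array. Data were drawn from 3228 arrays in the Consortium for Functional Glycomics database, restricted to those with a known protein sequence. Scores were averaged over arrays of the same protein sequence at different concentrations or buffers, and over linkers, and negative values can be taken as non-binding.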
# [2] = target: Gal(b1-3)GlcNAc(b1-2)Man(a1-3)[GlcNAc(b1-4)][Gal(b1-3)GlcNAc(b1-2)Man(a1-6)]Man(b1-4)GlcNAc(b1-4)GlcNAc
# Outline: as §1
# [3] = target: Gal(b1-3)GlcNAc(b1-2)[Gal(b1-3)GlcNAc(b1-6)]Man(a1-6)[Gal(b1-3)GlcNAc(b1-2)Man(a1-3)]Man(b1-4)GlcNAc(b1-4)GlcNAc
# Outline: as §1
# [4] = target: Gal(b1-3)GlcNAc(b1-3)Gal(b1-3)GlcNAc
# Outline: as §1
# [5] = target: Gal(b1-3)GlcNAc(b1-3)Gal(b1-4)Glc
# Outline: as §1
# [6] = target: Gal(b1-3)GlcNAc(b1-3)Gal(b1-4)GlcNAc
# Outline: as §1
# [7] = target: Gal(b1-3)GlcNAc(b1-3)Gal(b1-4)GlcNAc(b1-2)Man(a1-3)[Gal(b1-3)GlcNAc(b1-3)Gal(b1-4)GlcNAc(b1-2)Man(a1-6)]Man(b1-4)GlcNAc(b1-4)GlcNAc
# Outline: as §1
# [8] = target: Gal(b1-3)GlcNAc(b1-3)Gal(b1-4)GlcNAc(b1-2)[Gal(b1-3)GlcNAc(b1-3)Gal(b1-4)GlcNAc(b1-6)]Man(a1-6)[Gal(b1-3)GlcNAc(b1-3)Gal(b1-4)GlcNAc(b1-2)Man(a1-3)]Man(b1-4)GlcNAc(b1-4)[Fuc(a1-6)]GlcNAc
# Outline: as §1
# [9] = target: Gal(b1-3)GlcNAc(b1-3)Gal(b1-4)GlcNAc(b1-3)Gal(b1-4)GlcNAc(b1-2)[Gal(b1-3)GlcNAc(b1-3)Gal(b1-4)GlcNAc(b1-3)Gal(b1-4)GlcNAc(b1-6)]Man(a1-6)[Gal(b1-3)GlcNAc(b1-3)Gal(b1-4)GlcNAc(b1-3)Gal(b1-4)GlcNAc(b1-2)Man(a1-3)]Man(b1-4)GlcNAc(b1-4)[Fuc(a1-6)]GlcNAc
# Outline: as §1
# [10] = target: Gal(b1-3)GlcNAc(b1-3)Gal(b1-4)GlcNAc(b1-6)[Gal(b1-3)GlcNAc(b1-3)]Gal(b1-4)Glc
# Outline: as §1
# [11] = target: Gal(b1-3)GlcNAc(b1-3)Gal(b1-4)[Fuc(a1-3)]GlcNAc
# Outline: as §1
# [12] = target: Gal(b1-3)GlcNAc(b1-3)Gal(b1-4)[Fuc(a1-3)]GlcNAc(b1-6)[Gal(b1-3)GlcNAc(b1-3)]Gal(b1-4)Glc
# Outline: as §1
# [13] = target: Gal(b1-3)GlcNAc(b1-3)GalNAc
# Outline: as §1
# [14] = target: Gal(b1-3)GlcNAc(b1-6)Gal(b1-4)GlcNAc
# Outline: as §1
# [15] = target: Gal(b1-3)GlcNAc(b1-6)GalNAc
# Outline: as §1
# [16] = target: Gal(b1-3)GlcNAc(b1-6)[Gal(b1-3)]GalNAc
# Outline: as §1
# Gal(b1-3)GlcNAc6S = target: Gal(b1-3)GlcNAc6S
# Outline: as §1
# [17] = target: Gal(b1-3)[Fuc(a1-4)]GlcNAc
# Outline: as §1
# [18] = target: Gal(b1-3)[Fuc(a1-4)]GlcNAc(b1-2)Man
# Outline: as §1
# [19] = target: Gal(b1-3)[Fuc(a1-4)]GlcNAc(b1-2)Man(a1-3)[Gal(b1-3)[Fuc(a1-4)]GlcNAc(b1-2)Man(a1-6)]Man(b1-4)GlcNAc(b1-4)[Fuc(a1-6)]GlcNAc
# Outline: as §1
# [20] = target: Gal(b1-3)[Fuc(a1-4)]GlcNAc(b1-3)Gal(b1-3)[Fuc(a1-4)]GlcNAc
# Outline: as §1
# [21] = target: Gal(b1-3)[Fuc(a1-4)]GlcNAc(b1-3)Gal(b1-4)[Fuc(a1-3)]GlcNAc
# Outline: as §1
# [22] = target: Gal(b1-3)[Fuc(a1-4)]GlcNAc(b1-6)GalNAc
# Outline: as §1
# [23] = target: Gal(b1-3)[GlcNAc(b1-6)]GalNAc
# Outline: as §1
# [24] = target: Gal(b1-3)[Neu5Ac(a2-6)]GalNAc
# Outline: as §1
# [25] = target: Gal(b1-3)[Neu5Ac(a2-6)]GlcNAc(b1-4)Gal(b1-4)Glc
# Outline: as §1
# [26] = target: Gal(b1-3)[Neu5Ac(b2-6)]GalNAc
# Outline: as §1
# Gal(b1-4)Gal = target: Gal(b1-4)Gal
# Outline: as §1
# [27] = target: Gal(b1-4)GalNAc(a1-3)[Fuc(a1-2)]Gal(b1-4)GlcNAc
# Outline: as §1
# [28] = target: Gal(b1-4)GalNAc(b1-3)[Fuc(a1-2)]Gal(b1-4)GlcNAc
# Outline: as §1
# Gal(b1-4)Glc = target: Gal(b1-4)Glc
# Outline: as §1
# Gal(b1-4)Glc6S = target: Gal(b1-4)Glc6S
# Outline: as §1
# Gal(b1-4)GlcNAc = target: Gal(b1-4)GlcNAc
# Outline: as §1
# [29] = target: Gal(b1-4)GlcNAc(a1-6)Gal(b1-4)GlcNAc
# Outline: as §1
# Gal(b1-4)GlcNAc(b1-2)Man = target: Gal(b1-4)GlcNAc(b1-2)Man
# Outline: as §1
# [30] = target: Gal(b1-4)GlcNAc(b1-2)Man(a1-3)Man(b1-4)GlcNAc(b1-4)GlcNAc
# Outline: as §1
# [31] = target: Gal(b1-4)GlcNAc(b1-2)Man(a1-3)[Gal(b1-4)GlcNAc(b1-2)Man(a1-6)]Man(b1-4)GlcNAc(b1-4)GlcNAc
# Outline: as §1
# [32] = target: Gal(b1-4)GlcNAc(b1-2)Man(a1-3)[Gal(b1-4)GlcNAc(b1-2)Man(a1-6)]Man(b1-4)GlcNAc(b1-4)[Fuc(a1-6)]GlcNAc
# Outline: as §1
# [33] = target: Gal(b1-4)GlcNAc(b1-2)Man(a1-3)[Gal(b1-4)GlcNAc(b1-2)Man(a1-6)][Gal(b1-4)GlcNAc(b1-4)]Man(b1-4)GlcNAc(b1-4)[Fuc(a1-6)]GlcNAc
# Outline: as §1
# [34] = target: Gal(b1-4)GlcNAc(b1-2)Man(a1-3)[Gal(b1-4)GlcNAc(b1-2)Man(a1-6)][GlcNAc(b1-4)]Man(b1-4)GlcNAc(b1-4)[Fuc(a1-6)]GlcNAc
# Outline: as §1
# [35] = target: Gal(b1-4)GlcNAc(b1-2)Man(a1-3)[GlcNAc(b1-2)Man(a1-6)]Man(b1-4)GlcNAc(b1-4)GlcNAc
# Outline: as §1
# [36] = target: Gal(b1-4)GlcNAc(b1-2)Man(a1-3)[GlcNAc(b1-4)][Gal(b1-4)GlcNAc(b1-2)Man(a1-6)]Man(b1-4)GlcNAc(b1-4)GlcNAc
# Outline: as §1
# [37] = target: Gal(b1-4)GlcNAc(b1-2)Man(a1-3)[Man(a1-6)]Man(b1-4)GlcNAc(b1-4)GlcNAc
# Outline: as §1
# [38] = target: Gal(b1-4)GlcNAc(b1-2)Man(a1-6)Man(b1-4)GlcNAc(b1-4)GlcNAc
# Outline: as §1
# [39] = target: Gal(b1-4)GlcNAc(b1-2)Man(a1-6)[GlcNAc(b1-2)Man(a1-3)]Man(b1-4)GlcNAc(b1-4)GlcNAc
# Outline: as §1
binder,measurement,setting,value
B1,glycan array binding signal (z-score),[1],0.752
same,glycan array binding signal (z-score),[2],2.45
same,glycan array binding signal (z-score),[3],0.349
same,glycan array binding signal (z-score),[4],-0.401
same,glycan array binding signal (z-score),[5],-0.361
same,glycan array binding signal (z-score),[6],-0.482
same,glycan array binding signal (z-score),[7],0.105
same,glycan array binding signal (z-score),[8],0.35
same,glycan array binding signal (z-score),[9],0.403
same,glycan array binding signal (z-score),[10],-0.514
same,glycan array binding signal (z-score),[11],-0.275
same,glycan array binding signal (z-score),[12],-0.458
same,glycan array binding signal (z-score),[13],-0.546
same,glycan array binding signal (z-score),[14],-0.391
same,glycan array binding signal (z-score),[15],-0.402
same,glycan array binding signal (z-score),[16],-0.423
same,glycan array binding signal (z-score),Gal(b1-3)GlcNAc6S,-0.142
same,glycan array binding signal (z-score),[17],0.13
same,glycan array binding signal (z-score),[18],-0.308
same,glycan array binding signal (z-score),[19],0.26
same,glycan array binding signal (z-score),[20],0.025
same,glycan array binding signal (z-score),[21],-0.4
same,glycan array binding signal (z-score),[22],1.04
same,glycan array binding signal (z-score),[23],-0.15
same,glycan array binding signal (z-score),[24],-0.652
same,glycan array binding signal (z-score),[25],0.423
same,glycan array binding signal (z-score),[26],-0.6
same,glycan array binding signal (z-score),Gal(b1-4)Gal,-0.334
same,glycan array binding signal (z-score),[27],-0.489
same,glycan array binding signal (z-score),[28],-0.283
same,glycan array binding signal (z-score),Gal(b1-4)Glc,-0.297
same,glycan array binding signal (z-score),Gal(b1-4)Glc6S,-0.153
same,glycan array binding signal (z-score),Gal(b1-4)GlcNAc,-0.41
same,glycan array binding signal (z-score),[29],0.906
same,glycan array binding signal (z-score),Gal(b1-4)GlcNAc(b1-2)Man,0.15
same,glycan array binding signal (z-score),[30],0.174
same,glycan array binding signal (z-score),[31],-0.717
same,glycan array binding signal (z-score),[32],0.741
same,glycan array binding signal (z-score),[33],-0.303
same,glycan array binding signal (z-score),[34],-0.332
same,glycan array binding signal (z-score),[35],-0.384
same,glycan array binding signal (z-score),[36],-0.908
same,glycan array binding signal (z-score),[37],0.153
same,glycan array binding signal (z-score),[38],-0.541
same,glycan array binding signal (z-score),[39],-0.491
